Whole data set: some 110,000 compounds, median “z-score” near -0.1, cut for the highest 2% near 2. Some of the results follow.
target: Metabotropic glutamate receptor 8 (Rattus norvegicus) (UniProt P70579); assay: rat mGluR8 modulators via GIRK flux, primary screen, cell-based, thallium flux, HTS (AID 488969); conditions: HEK293 rat mGluR8, GIRK (G protein-gated inwardly rectifying potassium channel) thallium flux, FluoZin2; at 10 µM; stronger effect = higher value; submaximal glutamate (EC20) added with thallium
UniProt P70579, sequence (P70579 whole entry, looked up): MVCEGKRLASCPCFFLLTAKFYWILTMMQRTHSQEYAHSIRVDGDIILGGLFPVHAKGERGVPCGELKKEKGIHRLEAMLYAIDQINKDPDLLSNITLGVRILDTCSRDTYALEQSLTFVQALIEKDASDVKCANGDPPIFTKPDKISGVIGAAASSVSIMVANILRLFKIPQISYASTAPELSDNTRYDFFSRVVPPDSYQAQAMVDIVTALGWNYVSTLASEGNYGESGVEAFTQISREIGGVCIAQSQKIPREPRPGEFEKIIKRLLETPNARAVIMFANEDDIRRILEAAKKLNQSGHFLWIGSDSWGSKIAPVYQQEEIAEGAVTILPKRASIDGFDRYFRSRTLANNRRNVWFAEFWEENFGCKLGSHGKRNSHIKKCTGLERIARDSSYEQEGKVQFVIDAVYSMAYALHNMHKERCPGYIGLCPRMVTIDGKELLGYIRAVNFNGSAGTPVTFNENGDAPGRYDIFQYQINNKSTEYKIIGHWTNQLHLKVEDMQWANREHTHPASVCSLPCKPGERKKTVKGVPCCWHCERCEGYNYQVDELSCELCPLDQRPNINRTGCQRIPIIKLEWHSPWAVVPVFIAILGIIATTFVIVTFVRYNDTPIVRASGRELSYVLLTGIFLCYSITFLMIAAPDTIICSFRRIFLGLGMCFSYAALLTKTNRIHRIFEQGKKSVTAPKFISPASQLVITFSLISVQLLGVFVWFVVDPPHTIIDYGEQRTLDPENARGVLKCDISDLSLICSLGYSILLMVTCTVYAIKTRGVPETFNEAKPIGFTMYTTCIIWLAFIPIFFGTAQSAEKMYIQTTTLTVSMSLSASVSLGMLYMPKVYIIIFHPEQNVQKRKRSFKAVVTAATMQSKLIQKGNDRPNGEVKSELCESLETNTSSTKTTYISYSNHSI

Compound	z-score
COc1ccc(CC(=O)OCn2nnc3ccccc3c2=O)cc1	-0.0754
CCOc1ccc(-c2nnc(SCC(=O)Nc3ccc4c(c3)c3ccccc3n4CC)n2N)cc1	-0.0283
COc1ccc(OC)c(NC(=O)CSc2nnc(Cc3cccn3C)n2CCc2ccccc2)c1	0.0253
NC(=O)c1cc(N)ccc1N1CCCC1	-0.67
CC1CCc2c(C(=O)N3CCN(S(=O)(=O)c4cccs4)CC3)csc2C1 (stereo not drawn)	-0.257
O=C(Nc1ccccc1SCC1CSc2nc3ccccc3c(=O)n21)c1ccccc1 (stereo not drawn)	-0.26
COc1ccccc1C(C)NCC(=O)Nc1ccccc1C(F)(F)F (stereo not drawn)	-0.161
COc1ccc(N(CC(=O)N2CCC(C)CC2)S(=O)(=O)c2c(C)nn(C)c2C)cc1	-0.194
COc1ccc2cc(C(c3nnnn3CCc3ccccc3)N3CCC(O)CC3)c(=O)[nH]c2c1 (stereo not drawn)	0.0569
CCc1ccc(NC(=O)COc2ccc(F)cc2C(=O)c2cnn(-c3ccccc3)c2)cc1	0.0381
COc1ccc2c(=O)c(N3C(=O)c4ccccc4C3=O)c(C)oc2c1	0.277
O=S(=O)(c1ccc(F)cc1)N1CCC(N2CCN(c3ccccc3)CC2)CC1	0.169
CC(=O)N1CCc2cc(S(=O)(=O)NC(Cc3ccccc3)C(=O)NC3CCCCCC3)ccc21 (stereo not drawn)	1.14
CCN1CCN(CCCNC(=O)c2cc3c(=O)[nH]c4ccccc4c3s2)CC1	0.477
Cc1ccc(Cl)cc1NC(=O)Cn1cc(C(F)(F)F)cc(Cl)c1=O	-0.0129
COc1ccc2c(c1)CCN(C(=O)CCl)C2C1C(=O)CCCC1=O (stereo not drawn)	-0.164
O=C(N/N=C/c1cc(Br)c(O)c(Br)c1)c1cccc(C(F)(F)F)c1	-0.108
CCc1nnc(NC(=O)CSc2nnc(COc3ccccc3)n2-c2ccc(C)cc2)s1	0.164
Cc1ccc2nc(SCC(=O)Nc3c(C)n(C)n(-c4ccccc4)c3=O)[nH]c2c1	1.92
Cc1ccc(-c2nc(CSc3nc4ccccc4c(=O)n3CCO)cs2)cc1	-0.0706
CC1(C)CC2CC(C)(CN2C(=O)COC(=O)c2cc(Cl)cc(Cl)c2N)C1 (stereo not drawn)	-0.444
Cc1ccc(Cl)cc1-c1ccc(/C=N/n2cnnc2)o1	0.0572
Cc1cc(C)c(C(=O)CSc2nnc(-c3ccccc3Br)o2)cc1C	0.0376
Cc1ccccc1C(=O)NC(C)c1ccc2c(c1)CCCC2 (stereo not drawn)	-0.141
C/C(=N\NC(=O)COc1ccc([N+](=O)[O-])cc1)C(C)(C)C	-0.0988
O=C(CSc1nnc(CN2CCCCC2)n1-c1ccccc1)c1ccc2c(c1)OCO2	-0.152
COc1cc(OC)cc(C(=O)N[C@H](C(=O)OCC(N)=O)C(C)C)c1	-0.131
Cc1cc(C)n(CC(O)Cn2cnc3c2c(=O)n(C)c(=O)n3C)n1 (stereo not drawn)	-0.156

Source: PubChem BioAssay AID488969 (Vanderbilt High Throughput Screening Facility, 2010)
